In PubChem BioAssay AID463173 (ICCB-Longwood Screening Facility, Harvard Medical School, 2010):
In all, about 52,000 compounds went through this assay and about 1,700 (3.3%) were called active. Cut-off read from the data, not from the text of the source: active = survival mostly below about 52% (no sharp cut-off); inactive = mostly above about 56%. Some of the results follow.

Test system: Wild type
Test: S. aureus survival, RN4220 and DeltatarO strains – OD600, teichoic acid synthesis inhibitors, primary screen (AID 463173)
Conditions: S. aureus RN4220 wild type/DeltatarO growth, OD600, 18 h, hits give low values, screened at 18.75 µg/mL (by protocol)

Row | SMILES | survival
1 | CCOC(=O)c1ccc(NC(=O)Cc2noc3ccc(C)cc23)cc1 | inactive: 79%
2 | O=c1ccn2c(n1)OC1C(O)C(CO)OC12 (centres undefined) | inactive: 112%
3 | Nc1ccc2nc(-c3ccc(N)c(Cl)c3)[nH]c2c1 | inactive: 117%
4 | O=C(C1CCN(S(=O)(=O)c2cccs2)CC1)N1CCN(c2ccccc2F)CC1 | inactive: 142%
5 | Cc1ccc(CNC(=O)CCCCCn2c(=O)c3sccc3n(CC(=O)N3CCCCC3C)c2=O)cc1 (centres undefined) | inactive: 77%
6 | O=C(CCCCCn1c(=O)[nH]c2ccccc2c1=O)N1CCN(c2cccc(C(F)(F)F)c2)CC1 | inactive: 77%
7 | CCCCC12CN3CC(C)(CN(C1)C3c1ccc(OCc3ccccc3)cc1)C2=O (centres undefined) | inactive: 92%
8 | CC1=C(C(=O)Nc2ccccc2Br)C2(CCC(C)CC2)OC1=O (centres undefined) | inactive: 83%
9 | Cc1ccc(-c2nc3sc(CCNC(=O)c4ccc(F)c(F)c4)c(C)n3n2)cc1 | inactive: 71%
10 | O=C(CC(c1ccccc1)C1CCCCC1=O)c1ccco1 (centres undefined) | inactive: 108%
11 | Cc1ccccc1NC(=O)c1sc2nc(-c3cc4ccccc4oc3=O)[nH]c(=O)c2c1C | inactive: 90%
12 | COc1ccc(/C=C/C(=O)NCc2ccccn2)cc1OC | inactive: 89%
13 | CCN(C(=O)Cn1c(C(=O)OC)cc2sccc21)c1cccc(C)c1 | inactive: 73%
14 | FC(F)(F)c1cccc(Nc2nc3nonc3nc2Nc2ccc(Cl)cc2)c1 | active: -3%
15 | COc1ccc(C)cc1NC(=O)CN(C)S(=O)(=O)c1ccc2c(c1)c(=O)n(C)c(=O)n2C | inactive: 81%
16 | Cc1ccccc1NC(=O)c1c(C)oc2ccc(O)c(CN3CCCCCC3)c12 | inactive: 108%
17 | CCC(CC)C(=O)Nc1ccc(S(=O)(=O)N2CCC(c3nc4ccccc4s3)CC2)cc1 | inactive: 87%
18 | Cc1nc(-c2ccc(S(=O)(=O)N3CCN(c4ccccc4F)CC3)cc2)co1 | inactive: 74%
19 | CC(C)NC(=O)c1ccc(CSc2nc3ccncc3n2Cc2cccc(F)c2)cc1 | inactive: 73%
20 | CC1SC(=NC(=O)c2ccco2)NC1=O (centres undefined) | inactive: 100%
21 | CCCn1cc(S(=O)(=O)c2ccc(C)c(C)c2)c(=O)c2cc(F)c(N3CCCCC3)cc21 | inactive: 126%
22 | CC1CCCCN1C(=O)Cn1nnc2c(cnn2-c2ccccc2)c1=O (centres undefined) | inactive: 111%
23 | CC1=C(c2ccc(C(C)C)cc2)S(=O)(=O)N=C1N1CCC(C(=O)NCc2ccc(C)o2)CC1 | inactive: 63%

Row | SMILES | survival
24 | O=C(NC1CCCCC1)c1ccc(CSc2nc3cccnc3n2Cc2ccccc2)cc1 | inactive: 81%
25 | Cc1ccccc1-c1noc(-c2ccc(NCc3cccnc3)c([N+](=O)[O-])c2)n1 | inactive: 121%
26 | CC(=O)Nc1cccc(NC(=O)CSc2nccn2Cc2ccccc2)c1 | inactive: 65%
27 | Cc1ccc(CN(Cc2cccn2-c2nnc(N3CCCC3=O)s2)C(=O)Nc2ccccc2Cl)cc1 | inactive: 115%
28 | O=C(COc1ccccc1-c1nc(-c2ccccc2)no1)Nc1ccc([N+](=O)[O-])cc1 | inactive: 82%
29 | Cc1cc(C)c2c(NC(=O)c3ccccc3Cl)c(C(=O)NCc3ccc(Cl)cc3)sc2n1 | inactive: 66%
30 | Cc1c(CC(=O)NCCc2ccccc2)c(=O)oc2c(C)c3occ(C(C)(C)C)c3cc12 | inactive: 84%
31 | CC(=O)c1cccc(NC(=O)Cn2ccn3nc(-c4ccccc4)cc3c2=O)c1 | inactive: 68%
32 | Cc1cc(Nc2cc(Cl)ccc2C)n2nc(-c3ccccc3)nc2n1 | inactive: 93%
33 | COc1ccc(OCCCn2c(C3CC(=O)N(c4ccc(F)cc4)C3)nc3ccccc32)cc1 (centres undefined) | inactive: 85%
34 | CCOC(=O)c1c(C)[nH]c(CCC(=O)NCc2ccc(OC)cc2OC)c1C | inactive: 85%
35 | Cc1nc2c(-c3ccc(F)cc3)c(C)nn2c(C)c1CCC(=O)NCc1ccc(F)cc1 | inactive: 92%
36 | COc1ccc(OC)c(-c2noc(N3CCN(c4cccc(C(F)(F)F)c4)CC3)n2)c1 | inactive: 136%
37 | CC(C)CCNC(=O)c1cc(-c2cccnc2)nc2ccc(S(=O)(=O)N3CCC(C)CC3)cc12 | inactive: 71%
38 | O=C(CSc1nc2c([nH]c3ccccc32)c(=O)n1-c1ccccc1)N1CCCCC1 | inactive: 69%
39 | COc1ccc(NC(=O)c2nnn(-c3ccc(C(C)C)cc3)c2C)c(OC)c1 | inactive: 90%
40 | O=C(CC1(O)C(=O)Nc2ccccc21)c1ccccc1O (centres undefined) | inactive: 91%
41 | CCOc1ccc(-c2cc(C(=O)NCCc3ccc(C)cc3)c3ccccc3n2)cc1 | inactive: 64%
42 | Cc1cccc(-n2c3nc(=O)[nH]c(=O)c-3cc3ccc(Cl)cc32)c1C | inactive: 82%
43 | Cc1ccc(NC(=O)CN2C(=O)c3ccccc3C2=O)c(C)c1 | inactive: 103%
44 | Cn1c(CN2CCOCC2)nc2cc(NC(=O)c3ccccc3[N+](=O)[O-])ccc21 | inactive: 116%
45 | CCOc1cccc2sc(N3CCN(C(=O)c4ccco4)CC3)nc12 | inactive: 67%
46 | O=C(NCCCN1CCN(c2ccc(F)cc2)CC1)Nc1ccccc1Cl | inactive: 133%

Row | SMILES | survival
47 | COc1cc(OC)c(NC(=O)c2ccc(-n3cnc4cccnc43)cc2)cc1Cl | inactive: 64%
48 | CCOC(=O)CC(NC(=O)Cn1nnc(-c2ccc(Cl)cc2)n1)c1ccc(OC)cc1 (centres undefined) | inactive: 100%
49 | CC(C)N(C(=O)CSc1nnc(-c2cccnc2)n1Cc1ccccc1)C(C)C | inactive: 104%
50 | COc1cc(NC(=O)CN2CCCN(Cc3cccc(F)c3)S2(=O)=O)cc(OC)c1 | inactive: 88%
51 | CCOC(=O)c1c(C)oc2nc(C)nc(NCCc3ccc(C)cc3)c12 | inactive: 73%
52 | CCCc1cc(N2CCN(c3ccccc3F)CC2)n2cnnc2n1 | inactive: 79%
53 | Cc1ccc(CN2C(=O)c3ccccc3Sc3ccc(C(=O)N4CCOCC4)cc32)cc1 | inactive: 70%
54 | Cc1cccc(C(=O)Nc2ccc(N3CC=C(c4ccccc4C)CC3)c(C(=O)O)c2)c1 | inactive: 66%
55 | CC1=C(C(=O)N2CCCCC2)C(c2ccc(Cl)cc2)n2c(nc3ccccc32)N1 (centres undefined) | inactive: 69%
56 | CCCNC(=O)c1cc2n(n1)CCCN(Cc1ccc(C)cc1)C2=O | inactive: 129%
57 | CCOc1ccc(NC(=O)CSc2oc(-c3ccco3)nc2S(=O)(=O)c2ccccc2)cc1 | inactive: 74%
58 | Cc1ccc(NC(=O)c2oc3ccc(S(=O)(=O)N(C)C4CCCCC4)cc3c2C)c(C)c1 | inactive: 102%
59 | COc1ccc(-c2nc(C)c(CCNC(=O)c3ccc(C(F)(F)F)cc3)s2)cc1OC | active: -4%
60 | COc1ccc(CNC(=O)CCCc2nnc3n(C(C)C)c(=O)c4sccc4n23)cc1 | inactive: 102%
61 | O=C(COc1ccccc1F)Nc1ccc2nc(SCC(=O)N3CCOCC3)sc2c1 | inactive: 92%
62 | O=S(=O)(c1ccccc1)c1nc(-c2ccc(F)cc2)oc1NCc1ccccc1 | inactive: 84%
63 | COC(=O)C1C(c2ccccc2)C(C(=O)N2CCOCC2)C1c1ccccc1 (centres undefined) | inactive: 128%
64 | Cc1c(-c2nsc(NC(=O)c3cccs3)n2)nnn1-c1ccc(F)cc1 | inactive: 72%
65 | COc1ccccc1CNC(=O)CCS(=O)(=O)c1ccc2c(c1)oc(=O)n2C | inactive: 71%
66 | CCOC(=O)c1cccc(NC(=O)CSc2ncc3c(n2)-c2ccc(Cl)cc2N(Cc2ccccc2)S3(=O)=O)c1 | inactive: 87%
67 | CCOc1ccc(CNC(=O)CSc2c3c(nc4cc(Cl)ccc24)CCCC3)cc1 | inactive: 74%
68 | O=C(NCCc1ccccc1)c1ccc2c(c1)nc1n2CCOC1 | inactive: 129%
69 | O=C(CN1CCOCC1)Nc1nc(-c2ccc3c(c2)CCN3S(=O)(=O)c2ccccc2)cs1 | inactive: 109%

Row | SMILES | survival
70 | Cc1ccc(S(=O)(=O)Nc2cc(Cl)c3oc4c(c3c2)CCCC4)cc1 | inactive: 85%
71 | CCN(CC)S(=O)(=O)c1ccc2c(c1)N(CC(=O)Nc1c(C)cccc1C)C(=O)C1CCCN21 (centres undefined) | inactive: 73%
72 | Cc1c(C)n(Cc2ccccc2)c2ccc(C(=O)N3CCN(c4ccccc4)CC3)cc12 | inactive: 78%
73 | COc1ccc(C(=O)NC(c2ccccc2Cl)c2cc(Cl)c3cccnc3c2O)cc1 (centres undefined) | inactive: 69%
74 | CCOC(=O)c1oc2c(c1C)-c1nn(Cc3cccc(Cl)c3)cc1CC2 | inactive: 66%
75 | COC(=O)CN(C#N)c1nc(C)cc(C)n1 | inactive: 107%
76 | CC(C)Oc1ccc(C(=O)N(Cc2ccc(N(C)C)cc2)Cc2ccco2)cc1 | inactive: 74%
77 | Cc1ccc(OCC(=O)NCC(=O)OCc2cc(=O)n3nc(C(C)C)sc3n2)cc1 | inactive: 113%
78 | COc1ccc(-c2nsc3c(N4CCCCC4C)ncnc23)cc1 (centres undefined) | inactive: 124%
79 | O=C(Nc1ccc(N2CCOCC2)cc1)C12CC3CC(CC(C3)C1)C2 | inactive: 102%
80 | O=C(CCS(=O)(=O)c1ccc(Br)s1)Nc1cc(C(F)(F)F)cc(C(F)(F)F)c1 | inactive: 80%
81 | O=c1[nH]n(CC2COC(c3ccccc3)O2)c(=O)c2ccccc12 (centres undefined) | inactive: 106%
82 | CCN(C(=O)Cn1c(=O)oc2cc(S(=O)(=O)N3CCCCCC3)ccc21)c1cccc(C)c1 | inactive: 83%
83 | COc1ccc(-c2nc(CSCC(=O)N3CCN(c4ccccc4F)CC3)c(C)o2)cc1 | inactive: 24%
84 | Cc1cccc(OC(=O)c2snnc2C)c1 | inactive: 83%
85 | Cc1cccc(C)c1Nc1c(-c2ccccn2)nc2ccc(Cl)cn12 | inactive: 131%
86 | O=C(NCc1ccccc1)NC1COc2ccccc2C1 (centres undefined) | inactive: 82%
87 | Cn1cc(S(=O)(=O)N2CCCCCC2)cc1C(=O)NCc1ccc(F)cc1 | inactive: 71%
88 | CCOc1ccccc1NC(=O)CSc1ncc2c(n1)-c1ccccc1N(CC)S2(=O)=O | inactive: 81%
89 | COc1ccc(CNCc2ccc(C(=O)O)s2)cc1 | inactive: 86%
